{"source": "patent US20210238304A1", "binders": {"B1": {"name": "201C15 (rabbit-human chimeric anti-human mesothelin antibody) (antibody, from another filing, V domains shown)", "VH": "QSVKESGGRLVTPGTPLTLTCTVSGIDLSSYAMGWFRQAPGKGLEYIGTINIGGRVYYASWAKGRFTISRTSTTVDLKAPSLTAEDTATYFCARYYNGGSYDIWGPGTLVTVSL", "VL": "DVVMTQTPASASEPVGGTVTIKCQASESIYRVLAWYQQKPGQPPKLLIYDTSTLASGAPSRFKGSGYGTEFTLTISGVQCEDAATYYCQGGYYADSYGIAFGGGTEVVVKR"}}, "target": "human mesothelin (recombinant, soluble) (human) (UniProt Q13421)", "sequence (Q13421 other isoform, or with tags, fused parts or gaps limits assumed)": "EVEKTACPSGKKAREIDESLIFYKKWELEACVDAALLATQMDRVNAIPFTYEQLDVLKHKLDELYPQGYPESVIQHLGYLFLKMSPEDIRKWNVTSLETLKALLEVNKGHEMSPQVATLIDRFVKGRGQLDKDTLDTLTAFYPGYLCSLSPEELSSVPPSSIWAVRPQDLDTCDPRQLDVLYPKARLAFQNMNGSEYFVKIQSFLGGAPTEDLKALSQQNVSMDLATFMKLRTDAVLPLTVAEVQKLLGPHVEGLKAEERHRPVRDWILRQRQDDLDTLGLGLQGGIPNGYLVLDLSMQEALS", "assay": "SPR BIAcore, captured mAb, mesothelin analyte", "note": "Some entries of the source have several records that differ or are many. This is not the full list of results. The source may hold further records. Values given together appear to be repeats on other runs, samples or individuals.", "data": [{"binder": "B1", "values": [{"measurement": "kon", "value": "274000 M⁻¹ s⁻¹ and 2.6e+06 M⁻¹ s⁻¹ [lines of one column]"}]}]}
